# The supplement of paper PMC8728848
# The other results are listed elsewhere or left out.
# Tests used:
# Assay in all cases: glycan array binding signal (z-score within array); higher = stronger binding
# Details in all cases: glycan notation: IUPAC condensed, linker removed
# [1] = target: Neu5Ac(a2-3)Gal(b1-3)GlcNAc(b1-6)GalNAc
# How it was run: (§1)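 The binding signal is a Z-score computed within each array and averaged over linkers. Arrays of the same protein sequence at different concentrations or buffers were also averaged together. Data originate from 3228 arrays in the Consortium for Functional Glycomics database, kept only where the protein sequence was available.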
# [2] = target: Neu5Ac(a2-3)Gal(b1-3)GlcNAc6S
# How it was run: as §1
# [3] = target: Neu5Ac(a2-3)Gal(b1-3)[Fuc(a1-4)]GlcNAc
# How it was run: as §1
# [4] = target: Neu5Ac(a2-3)Gal(b1-3)[Fuc(a1-4)]GlcNAc(b1-3)Gal(b1-3)[Fuc(a1-4)]GlcNAc
# How it was run: as §1
# [5] = target: Neu5Ac(a2-3)Gal(b1-3)[Fuc(a1-4)]GlcNAc(b1-3)Gal(b1-4)[Fuc(a1-3)]GlcNAc
# How it was run: as §1
# [6] = target: Neu5Ac(a2-3)Gal(b1-3)[GlcNAc(b1-6)]GalNAc
# How it was run: as §1
# [7] = target: Neu5Ac(a2-3)Gal(b1-3)[Neu5Ac(a2-6)]GalNAc
# How it was run: as §1
# [8] = target: Neu5Ac(a2-3)Gal(b1-3)[Neu5Ac(a2-6)]GlcNAc(b1-3)[Fuc(a1-3)[Gal(b1-4)]GlcNAc(b1-6)]Gal(b1-4)Glc
# How it was run: as §1
# [9] = target: Neu5Ac(a2-3)Gal(b1-3)]Neu5Ac(a2-3)Gal(b1-4)]GlcNAc
# How it was run: as §1
# Neu5Ac(a2-3)Gal(b1-4)Glc = target: Neu5Ac(a2-3)Gal(b1-4)Glc
# How it was run: as §1
# [10] = target: Neu5Ac(a2-3)Gal(b1-4)GlcNAc
# How it was run: as §1
# [11] = target: Neu5Ac(a2-3)Gal(b1-4)GlcNAc(b1-2)Man
# How it was run: as §1
# [12] = target: Neu5Ac(a2-3)Gal(b1-4)GlcNAc(b1-2)Man(a1-3)[GlcNAc(b1-4)][Neu5Ac(a2-3)Gal(b1-4)GlcNAc(b1-2)Man(a1-6)]Man(b1-4)GlcNAc(b1-4)GlcNAc
# How it was run: as §1
# [13] = target: Neu5Ac(a2-3)Gal(b1-4)GlcNAc(b1-2)Man(a1-3)[Neu5Ac(a2-3)Gal(b1-4)GlcNAc(b1-2)Man(a1-6)]Man(b1-4)GlcNAc(b1-4)GlcNAc
# How it was run: as §1
# [14] = target: Neu5Ac(a2-3)Gal(b1-4)GlcNAc(b1-2)Man(a1-3)[Neu5Ac(a2-3)Gal(b1-4)GlcNAc(b1-2)Man(a1-6)]Man(b1-4)GlcNAc(b1-4)[Fuc(a1-6)]GlcNAc
# How it was run: as §1
# [15] = target: Neu5Ac(a2-3)Gal(b1-4)GlcNAc(b1-2)Man(a1-3)[Neu5Ac(a2-6)Gal(b1-4)GlcNAc(b1-2)Man(a1-6)]Man(b1-4)GlcNAc(b1-4)GlcNAc
# How it was run: as §1
# [16] = target: Neu5Ac(a2-3)Gal(b1-4)GlcNAc(b1-2)[Neu5Ac(a2-3)Gal(b1-4)GlcNAc(b1-4)]Man(a1-3)[GlcNAc(b1-4)][Neu5Ac(a2-3)Gal(b1-4)GlcNAc(b1-2)[Neu5Ac(a2-3)Gal(b1-4)GlcNAc(b1-6)]Man(a1-6)]Man(b1-4)GlcNAc(b1-4)GlcNAc
# How it was run: as §1
# [17] = target: Neu5Ac(a2-3)Gal(b1-4)GlcNAc(b1-2)[Neu5Ac(a2-3)Gal(b1-4)GlcNAc(b1-4)]Man(a1-3)[GlcNAc(b1-4)][Neu5Ac(a2-3)Gal(b1-4)GlcNAc(b1-4)Man(a1-6)]Man(b1-4)GlcNAc(b1-4)GlcNAc
# How it was run: as §1
# [18] = target: Neu5Ac(a2-3)Gal(b1-4)GlcNAc(b1-2)[Neu5Ac(a2-3)Gal(b1-4)GlcNAc(b1-6)]Man(a1-6)[Neu5Ac(a2-3)Gal(b1-4)GlcNAc(b1-2)Man(a1-3)][GlcNAc(b1-4)]Man(b1-4)GlcNAc(b1-4)GlcNAc
# How it was run: as §1
# [19] = target: Neu5Ac(a2-3)Gal(b1-4)GlcNAc(b1-3)Gal
# How it was run: as §1
# [20] = target: Neu5Ac(a2-3)Gal(b1-4)GlcNAc(b1-3)Gal(b1-3)GlcNAc
# How it was run: as §1
# [21] = target: Neu5Ac(a2-3)Gal(b1-4)GlcNAc(b1-3)Gal(b1-4)GlcNAc
# How it was run: as §1
# [22] = target: Neu5Ac(a2-3)Gal(b1-4)GlcNAc(b1-3)Gal(b1-4)GlcNAc(b1-2)Man(a1-3)[Neu5Ac(a2-3)Gal(b1-4)GlcNAc(b1-3)Gal(b1-4)GlcNAc(b1-2)Man(a1-6)]Man(b1-4)GlcNAc(b1-4)GlcNAc
# How it was run: as §1
# [23] = target: Neu5Ac(a2-3)Gal(b1-4)GlcNAc(b1-3)Gal(b1-4)GlcNAc(b1-3)Gal(b1-4)GlcNAc
# How it was run: as §1
# [24] = target: Neu5Ac(a2-3)Gal(b1-4)GlcNAc(b1-3)Gal(b1-4)GlcNAc(b1-3)Gal(b1-4)GlcNAc(b1-2)Man(a1-3)[Neu5Ac(a2-3)Gal(b1-4)GlcNAc(b1-3)Gal(b1-4)GlcNAc(b1-3)Gal(b1-4)GlcNAc(b1-2)Man(a1-6)]GalNAc
# How it was run: as §1
# [25] = target: Neu5Ac(a2-3)Gal(b1-4)GlcNAc(b1-3)Gal(b1-4)GlcNAc(b1-3)GalNAc
# How it was run: as §1
# [26] = target: Neu5Ac(a2-3)Gal(b1-4)GlcNAc(b1-3)Gal(b1-4)GlcNAc(b1-3)[Neu5Ac(a2-3)Gal(b1-4)GlcNAc(b1-3)Gal(b1-4)GlcNAc(b1-6)]GalNAc
# How it was run: as §1
# [27] = target: Neu5Ac(a2-3)Gal(b1-4)GlcNAc(b1-3)Gal(b1-4)GlcNAc(b1-6)[Gal(b1-3)]GalNAc
# How it was run: as §1
# [28] = target: Neu5Ac(a2-3)Gal(b1-4)GlcNAc(b1-3)Gal(b1-4)[Fuc(a1-3)]GlcNAc
# How it was run: as §1
# [29] = target: Neu5Ac(a2-3)Gal(b1-4)GlcNAc(b1-3)GalNAc
# How it was run: as §1
binder,measurement,setting,value
"LgFlo1 (Saccharomyces pastorianus), B3IUA8 (protein) SGSTQACLPVGSRKNGMNVNFYKYSLQDSTTYSDPQYMAYKYSDTKKLGSVSGQTHLSIYYGPNTAFWNTASWSSDLFGFYTTPTNVTVEMTGYFLPPQTGSYTFKFATVDDSAILSVGGSIAFECCAQEQPPITSTDFTINGIKPWDAATPTDIKGSTYMYAGYYYPIKIVYSNAKALARLPVSVVLPDGTEVNDDFEGYVYSFDDDLSQSNCTIPDPSKHTTS",glycan array binding signal (z-score),[1],-0.374
same,glycan array binding signal (z-score),[2],-0.305
same,glycan array binding signal (z-score),[3],-0.245
same,glycan array binding signal (z-score),[4],-0.023
same,glycan array binding signal (z-score),[5],-0.176
same,glycan array binding signal (z-score),[6],-0.396
same,glycan array binding signal (z-score),[7],-0.194
same,glycan array binding signal (z-score),[8],-0.335
same,glycan array binding signal (z-score),[9],-0.357
same,glycan array binding signal (z-score),Neu5Ac(a2-3)Gal(b1-4)Glc,1.97
same,glycan array binding signal (z-score),[10],-0.17
same,glycan array binding signal (z-score),[11],0.168
same,glycan array binding signal (z-score),[12],-0.11
same,glycan array binding signal (z-score),[13],0.515
same,glycan array binding signal (z-score),[14],-0.133
same,glycan array binding signal (z-score),[15],-0.162
same,glycan array binding signal (z-score),[16],-0.041
same,glycan array binding signal (z-score),[17],-0.142
same,glycan array binding signal (z-score),[18],-0.271
same,glycan array binding signal (z-score),[19],-0.169
same,glycan array binding signal (z-score),[20],-0.316
same,glycan array binding signal (z-score),[21],-0.092
same,glycan array binding signal (z-score),[22],-0.028
same,glycan array binding signal (z-score),[23],-0.17
same,glycan array binding signal (z-score),[24],-0.21
same,glycan array binding signal (z-score),[25],-0.237
same,glycan array binding signal (z-score),[26],-0.197
same,glycan array binding signal (z-score),[27],-0.226
same,glycan array binding signal (z-score),[28],-0.509
same,glycan array binding signal (z-score),[29],-0.114
